# Measurements as given in paper PMC12249101.
# Amino acid sequences for entries named in this document (tags omitted). A change or cut given only in a name is not applied to a line headed by its entry.
# UniProt Q8NHY2: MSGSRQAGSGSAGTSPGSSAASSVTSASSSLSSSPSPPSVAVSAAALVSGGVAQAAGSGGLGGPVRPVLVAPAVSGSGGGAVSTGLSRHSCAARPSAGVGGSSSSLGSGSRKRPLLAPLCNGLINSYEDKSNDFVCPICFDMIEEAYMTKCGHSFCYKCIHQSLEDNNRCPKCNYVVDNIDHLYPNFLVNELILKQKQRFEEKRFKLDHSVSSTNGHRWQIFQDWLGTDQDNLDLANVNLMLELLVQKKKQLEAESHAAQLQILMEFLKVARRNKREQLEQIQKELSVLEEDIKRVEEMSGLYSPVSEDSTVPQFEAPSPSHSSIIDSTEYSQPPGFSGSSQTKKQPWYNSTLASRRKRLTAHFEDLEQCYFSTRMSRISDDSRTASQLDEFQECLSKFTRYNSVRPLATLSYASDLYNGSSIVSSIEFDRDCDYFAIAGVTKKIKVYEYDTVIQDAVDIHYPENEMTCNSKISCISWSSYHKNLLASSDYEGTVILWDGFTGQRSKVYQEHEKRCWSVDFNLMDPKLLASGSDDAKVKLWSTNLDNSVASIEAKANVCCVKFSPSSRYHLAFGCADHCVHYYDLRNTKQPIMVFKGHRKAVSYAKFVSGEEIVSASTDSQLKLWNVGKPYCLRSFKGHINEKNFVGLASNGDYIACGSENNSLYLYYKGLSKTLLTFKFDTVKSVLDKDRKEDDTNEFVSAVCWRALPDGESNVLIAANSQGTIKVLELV
# UniProt P41161: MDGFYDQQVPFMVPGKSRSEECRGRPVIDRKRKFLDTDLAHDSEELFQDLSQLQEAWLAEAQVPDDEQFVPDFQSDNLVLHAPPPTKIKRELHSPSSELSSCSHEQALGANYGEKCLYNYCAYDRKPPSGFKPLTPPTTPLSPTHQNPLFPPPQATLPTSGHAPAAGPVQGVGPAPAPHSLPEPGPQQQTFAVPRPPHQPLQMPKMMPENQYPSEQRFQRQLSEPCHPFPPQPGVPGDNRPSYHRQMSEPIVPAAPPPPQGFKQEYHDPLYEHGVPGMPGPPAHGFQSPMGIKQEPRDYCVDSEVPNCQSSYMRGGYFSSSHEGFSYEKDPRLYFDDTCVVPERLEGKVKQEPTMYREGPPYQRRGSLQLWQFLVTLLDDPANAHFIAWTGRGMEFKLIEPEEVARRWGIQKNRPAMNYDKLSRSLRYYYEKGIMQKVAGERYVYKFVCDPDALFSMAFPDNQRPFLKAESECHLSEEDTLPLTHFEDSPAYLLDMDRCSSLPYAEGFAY
# These are yes or no findings as the source states them, for the method shown. Binding seen in cells or lysates may run through a third protein. Some results given as binding are weak or reduced against the parent protein; the word gives no strength.
# What was measured:
# [1] = target: COP1 (Constitutive Photomorphogenic 1), wild type, endogenous in A375 cells (human (endogenous in A375)) (UniProt Q8NHY2); assay: co-IP; COP1 immunoprecipitated from lysates of WT or COP1^K539E A375 cells with anti-COP1 antibody (28A4, Genentech) and magnetic protein A/G beads; immunoprecipitates blotted against ETV5; lysis in 50 mM HEPES pH 7.2, 120 mM NaCl, 1 mM EDTA, 0.1% NP-40
# [2] = target: COP1^K539E, expressed from the edited endogenous COP1 locus of A375 cells (human (endogenous in A375)) (UniProt Q8NHY2); assay: as above
# [3] = target: COP1^K472E (human) (UniProt Q8NHY2); assay: co-IP; Western blots of transfected 293T cells (Figure 2G); WT and mutant genes overexpressed from a PRK5-based vector, Lipofectamine; which protein was precipitated not given
# [4] = target: COP1 wild type, overexpressed in 293T cells (human) (UniProt Q8NHY2); assay: as above
# [5] = target: COP1^(E511K, E513K, K539E) (human) (UniProt Q8NHY2); assay: co-IP; ETV5 coimmunoprecipitated with COP1 mutants (Figure S2H); cells and antibody not stated
# [6] = target: COP1^(E511K, K539E) (human) (UniProt Q8NHY2); assay: as above
substance,measurement,setting,value
"ETV5, endogenous in A375 cells (from UniProt P41161 1-510)",binding,[1],binds
same,binding,[2],no binding
ETV5 in transfected 293T cells (from UniProt P41161 1-510),binding,[3],no binding
same,binding,[4],binds
same,binding,[5],binds
same,binding,[6],binds weakly
